These are yes or no findings as the source states them, for the method shown. In cells and extracts the contact can be indirect. Some results given as binding are weak or reduced against the parent protein; the word gives no strength. For part of these data: Sequences can lack the tags named with a protein.
Columns and labels:
iASPP-V5 = target: T1, iASPP-V5 (UniProt Q8WUF5); test: co-IP; U2OS cells expressing V5-tagged constructs; immunoprecipitation with anti-V5; endogenous Par3 and PP1α detected by immunoblot
T1 sequence: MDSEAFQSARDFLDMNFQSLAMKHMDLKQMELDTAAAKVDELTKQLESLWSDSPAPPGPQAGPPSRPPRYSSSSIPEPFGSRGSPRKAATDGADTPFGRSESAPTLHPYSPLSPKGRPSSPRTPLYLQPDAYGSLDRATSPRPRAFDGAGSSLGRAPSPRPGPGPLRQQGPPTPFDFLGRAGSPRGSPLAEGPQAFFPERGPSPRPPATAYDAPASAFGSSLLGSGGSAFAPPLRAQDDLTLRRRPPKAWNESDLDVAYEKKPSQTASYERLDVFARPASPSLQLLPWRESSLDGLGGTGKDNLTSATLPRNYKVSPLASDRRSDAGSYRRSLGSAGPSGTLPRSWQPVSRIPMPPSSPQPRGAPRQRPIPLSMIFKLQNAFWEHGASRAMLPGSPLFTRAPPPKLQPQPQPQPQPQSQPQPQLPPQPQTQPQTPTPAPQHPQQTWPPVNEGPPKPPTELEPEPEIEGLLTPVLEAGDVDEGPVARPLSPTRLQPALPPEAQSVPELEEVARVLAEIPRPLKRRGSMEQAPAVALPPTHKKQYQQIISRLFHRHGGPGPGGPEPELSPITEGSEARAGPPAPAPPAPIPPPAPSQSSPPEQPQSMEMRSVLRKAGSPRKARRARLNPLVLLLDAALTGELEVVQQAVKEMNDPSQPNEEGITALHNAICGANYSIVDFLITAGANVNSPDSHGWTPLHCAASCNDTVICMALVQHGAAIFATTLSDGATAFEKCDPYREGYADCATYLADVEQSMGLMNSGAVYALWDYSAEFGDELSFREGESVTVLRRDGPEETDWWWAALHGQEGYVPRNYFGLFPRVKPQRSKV

By UniProt entry, the sequences of proteins in these tests, tags left out.
UniProt Q8TEW0: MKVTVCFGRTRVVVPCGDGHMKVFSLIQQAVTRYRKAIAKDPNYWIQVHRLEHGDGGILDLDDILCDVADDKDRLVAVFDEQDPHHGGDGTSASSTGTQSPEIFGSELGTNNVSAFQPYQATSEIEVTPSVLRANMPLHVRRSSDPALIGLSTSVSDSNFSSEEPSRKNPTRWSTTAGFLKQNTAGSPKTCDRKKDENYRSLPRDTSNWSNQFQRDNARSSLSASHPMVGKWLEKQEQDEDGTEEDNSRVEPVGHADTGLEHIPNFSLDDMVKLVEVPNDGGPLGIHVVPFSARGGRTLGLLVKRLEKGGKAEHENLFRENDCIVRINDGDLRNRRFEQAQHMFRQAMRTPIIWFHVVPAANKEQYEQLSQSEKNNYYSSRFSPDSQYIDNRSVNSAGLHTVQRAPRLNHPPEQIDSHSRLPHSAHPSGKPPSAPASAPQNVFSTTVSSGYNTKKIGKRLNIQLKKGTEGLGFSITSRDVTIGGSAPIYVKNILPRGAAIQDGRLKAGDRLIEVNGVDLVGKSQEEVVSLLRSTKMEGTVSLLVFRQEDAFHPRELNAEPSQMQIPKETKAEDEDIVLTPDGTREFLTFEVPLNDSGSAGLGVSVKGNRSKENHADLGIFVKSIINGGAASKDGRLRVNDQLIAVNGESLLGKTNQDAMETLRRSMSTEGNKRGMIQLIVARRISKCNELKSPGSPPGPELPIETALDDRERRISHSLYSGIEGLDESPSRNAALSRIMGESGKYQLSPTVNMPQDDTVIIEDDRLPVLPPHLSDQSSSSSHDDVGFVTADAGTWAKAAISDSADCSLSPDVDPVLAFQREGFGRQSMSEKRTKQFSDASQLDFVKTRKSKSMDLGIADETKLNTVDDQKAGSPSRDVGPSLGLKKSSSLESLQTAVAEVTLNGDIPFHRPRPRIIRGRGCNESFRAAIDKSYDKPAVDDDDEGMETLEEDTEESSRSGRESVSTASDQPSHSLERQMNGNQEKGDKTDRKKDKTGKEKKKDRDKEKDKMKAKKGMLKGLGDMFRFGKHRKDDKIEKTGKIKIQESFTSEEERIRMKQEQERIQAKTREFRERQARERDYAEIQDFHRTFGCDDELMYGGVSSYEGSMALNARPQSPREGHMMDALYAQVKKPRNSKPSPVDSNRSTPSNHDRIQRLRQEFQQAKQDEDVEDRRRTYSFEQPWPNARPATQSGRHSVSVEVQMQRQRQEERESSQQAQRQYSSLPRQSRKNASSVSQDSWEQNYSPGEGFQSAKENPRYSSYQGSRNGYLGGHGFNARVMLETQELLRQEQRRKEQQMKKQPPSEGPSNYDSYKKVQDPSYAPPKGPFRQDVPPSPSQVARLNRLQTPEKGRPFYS

ASPP2-V5 = target: T2, ASPP2-V5 (UniProt Q13625); test: as above
T2 sequence: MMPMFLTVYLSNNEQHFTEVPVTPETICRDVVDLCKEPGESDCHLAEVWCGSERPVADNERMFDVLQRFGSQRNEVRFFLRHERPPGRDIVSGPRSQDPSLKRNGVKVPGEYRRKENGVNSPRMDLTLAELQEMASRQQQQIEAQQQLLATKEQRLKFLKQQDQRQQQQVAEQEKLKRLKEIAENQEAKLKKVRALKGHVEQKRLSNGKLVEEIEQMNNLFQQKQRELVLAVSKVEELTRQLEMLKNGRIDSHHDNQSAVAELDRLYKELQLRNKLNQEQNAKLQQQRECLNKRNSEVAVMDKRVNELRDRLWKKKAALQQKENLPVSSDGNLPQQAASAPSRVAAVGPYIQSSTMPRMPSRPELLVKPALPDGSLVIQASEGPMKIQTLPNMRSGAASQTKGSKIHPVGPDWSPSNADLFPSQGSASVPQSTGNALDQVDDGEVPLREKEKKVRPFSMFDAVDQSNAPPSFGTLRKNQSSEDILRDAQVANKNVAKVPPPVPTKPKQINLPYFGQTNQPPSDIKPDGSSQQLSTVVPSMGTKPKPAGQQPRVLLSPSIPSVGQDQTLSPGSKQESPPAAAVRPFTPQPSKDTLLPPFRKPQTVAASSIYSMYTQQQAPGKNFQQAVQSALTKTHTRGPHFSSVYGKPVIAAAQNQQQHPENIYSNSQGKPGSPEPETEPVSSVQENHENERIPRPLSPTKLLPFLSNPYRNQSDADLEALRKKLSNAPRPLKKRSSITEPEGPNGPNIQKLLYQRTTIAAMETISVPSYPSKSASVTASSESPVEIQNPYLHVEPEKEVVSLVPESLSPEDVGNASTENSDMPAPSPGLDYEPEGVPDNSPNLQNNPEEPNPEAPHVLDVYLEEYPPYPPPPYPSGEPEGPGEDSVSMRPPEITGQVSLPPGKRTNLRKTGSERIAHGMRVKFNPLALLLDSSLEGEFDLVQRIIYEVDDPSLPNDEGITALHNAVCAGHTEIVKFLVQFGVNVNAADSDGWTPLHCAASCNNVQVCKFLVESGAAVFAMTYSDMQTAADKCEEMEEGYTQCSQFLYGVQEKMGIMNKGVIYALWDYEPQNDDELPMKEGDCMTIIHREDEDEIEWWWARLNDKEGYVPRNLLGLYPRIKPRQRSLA

[1] = target: T3, ASPP2 (endogenous, Caco-2 cells) (human (endogenous in Caco-2)) (UniProt Q13625); test: co-IP; endogenous ASPP2 immunoprecipitated from Caco-2 lysates with anti-ASPP2 DX50.13 (anti-Gal4 as negative control); cells at low, medium and high density; 50 mM Tris-HCl pH 8, 150 mM NaCl, 1 mM EDTA, 1% Triton X-100; immunoblot
T3 sequence: T2 sequence

Par3 (endogenous) (from UniProt Q8TEW0 1-1356)
binding (iASPP-V5): no binding
binding (ASPP2-V5): binds
binding [1]: binds

Reference: publication PMC4216074
